The campaign covered roughly 390,000 compounds. About 930 (0.24%) were called active. The inconclusive results got no clear call from the source; some entries with a clear call stand among them for comparison. Calls come from the whole dose curve; as a rule, active = well fitted activation curve with a large enough effect; inconclusive = small, poorly fitted or top-dose-only effect; inactive = no such curve, though single readings can be large or run the other way. Where the call is inconclusive, the potency comes from a doubtful curve fit.
test: qHTS for Suppressors of FUS Proteinopathy: Primary screen using FUS-linked yeast assay; note: nearly all actives have a fitted effect of over 55% in size;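 for growth rescue (activation): plate controls were DMSO vehicle for no effect and reference control for full effect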; settings: S. cerevisiae FUS-expressing, OD600, 24 h; Potency: growth rescue; growth rescue (activation): at 76.6 µM (top of the series)
Outline: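 Quantitative HTS measuring growth restoration of FUS-toxic yeast. Galactose-induced cells (OD 0.005) were exposed 24hr at 30C to compounds at several concentrations, then absorbance at 600 nm was recorded.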
Potency is the fitted concentration of half-maximal effect; tags give direction and shape of the fitted curve.

| Structure (SMILES) | Potency | growth rescue (activation) |
| --- | --- | --- |
| CC(NC(=O)c1ccco1)C1COc2ccccc2O1 (configuration not stated) | inconclusive: 28.2 µM [activator, single point] |  |
| O=C(CC(=O)Nc1ccccc1F)Nc1ccc2nc3n(c(=O)c2c1)CCCCC3 |  | inactive: 27.6% |
| Cc1ccc(C)c2[nH]c(=O)c(CN(CC3CCCO3)C(=O)NC3CCCCC3)cc12 (configuration not stated) | inconclusive: 50.1 µM [activator, single point] |  |
| Cc1cccc(N2CCN(C(=O)c3ccc4c(c3)N(Cc3cccc(Cl)c3)C(=O)c3ccccc3S4=O)CC2)c1C (configuration not stated) | inconclusive: 12.6 µM [activator, partial curve, poor fit] |  |
| Nc1ccc(N2CCN(C(=O)c3ccco3)CC2)cc1 | inconclusive: 15.8 µM [activator, partial curve] |  |
| COc1ccc(CN2C[C@]3(C=C(C)Cn4c(=O)n(-c5ccccc5)c(=O)n43)N(C(=O)OCc3ccccc3)C2=NC(=O)c2ccccc2)c(OC)c1 | inconclusive: 11.2 µM [activator, single point] |  |
| C=CC[C@@H](CC(=O)OC(C)(C)C)C(=O)OC[C@@H]1CCCN1C(=O)[C@@H](CC=C)CC(=O)N[C@H](CO)Cc1ccccc1 | inconclusive: 20 µM [activator, partial curve] |  |
| COc1ccc(NC(=O)Nc2nnc(Cc3ccc(F)cc3)s2)cc1 |  | inactive: 21% |
| COc1cc2c(cc1OC)C(c1ccc(-c3ccccc3Cl)o1)=NCC2 | inconclusive: 25.1 µM [activator, partial curve, poor fit] |  |
| CCCCOC(=O)c1ccc(Nc2nc3ccc(C)cc3n3cnnc23)cc1 |  | inactive: -1.45% |
| CN(C)S(=O)(=O)c1ccc(NC(=O)/C=C/c2ccccc2Cl)cc1 | inconclusive: 20 µM [activator, partial curve, poor fit] |  |
| CC(C)NC(=O)C1CCN(c2cncnc2)CC1 |  | inactive: 2.23% |
| COc1ccc2c(c1)N[C@@](CCN1C(=O)c3ccccc3C1=O)(c1[nH]c3ccccc3c1CCN1C(=O)c3ccccc3C1=O)C2=O | inconclusive: 17.8 µM [activator, partial curve, poor fit] |  |
| O=C(CN1CCOCC1)Nc1ccccc1 | active: 25.1 µM |  |
| Cc1cc(C)nc(NC(=O)CSc2nn(C)c(=S)s2)n1 | inconclusive: 11.2 µM [activator, partial curve, poor fit] |  |
| COc1ccc(-c2coc3c(C(=O)NCC4CCOCC4)cccc23)c(C)c1 | inconclusive: 25.1 µM [activator, partial curve] |  |
| CCc1ccc(C(=O)c2cn(Cc3ccccc3)c3cc(OC)c(OC)cc3c2=O)cc1 | inconclusive: 44.7 µM [activator, single point] |  |
| O=C(COc1ccc(F)cc1)OCc1cc(=O)n2nc(C3CC3)sc2n1 |  | inactive: 21.1% |
| COC(=O)C1=C(C(=O)OC)[C@@H]2N(Cc3ccccc3)c3ccccc3[C@@]23C[C@@H](C(=O)OC)N(C(=O)COCc2ccccc2)C3=N1 | inconclusive: 28.2 µM [activator, partial curve] |  |
| COc1cccc(NC(=O)c2oc3ccc(S(=O)(=O)N4CCC5(CC4)OCCO5)cc3c2C)c1 | inconclusive: 31.6 µM [activator, single point] |  |
| COc1ccc(Nc2nc(N3CCOCC3)nc(N3CCOCC3)n2)cc1Cl |  | inactive: 7.08% |

| Structure (SMILES) | Potency | growth rescue (activation) |
| --- | --- | --- |
| N#Cc1ccsc1NC(=O)C1CC(=O)N(Cc2ccccc2)C1 (configuration not stated) |  | inactive: 8.44% |
| CC(C)(C)c1ccc(-n2nc(C#N)c(Cl)cc2=O)cc1 |  | inactive: -10.5% |
| O=C(CCc1nnc2ccc(N3CCCCC3)nn12)NCc1ccco1 |  | inactive: 7.1% |
| O=C(OCC1OC(n2ncc(=O)[nH]c2=O)C(OC(=O)c2ccccc2)C1OC(=O)c1ccccc1)c1ccccc1 (configuration not stated) | inconclusive: 12.6 µM [activator, partial curve, poor fit] |  |
| O=C(NCCOc1ccccc1Cl)c1ncn[nH]1 |  | inactive: -8.96% |
| O=C(COc1cccc2cccnc12)Nc1cccc(S(=O)(=O)N2CCCC2)c1 | inconclusive: 8.91 µM [activator, partial curve] |  |
| CCc1ccccc1NC(=O)C1CCCN1S(=O)(=O)c1ccc(-c2ccc(=O)[nH]n2)s1 (configuration not stated) | inconclusive: 35.5 µM [activator, single point] |  |
| CC1COC(=O)C(NNc2ccc(Cl)c(Cl)c2)=N1 (configuration not stated) |  | inactive: -2.55% |
| CS(=O)(=O)N1Cc2cc(C(=O)NCC3CCCCC3)nc(-c3cccc(-c4cccnc4)c3)c2[C@H]1CCO | inconclusive: 17.8 µM [activator, partial curve, poor fit] |  |
| CCOc1ccc(CSCCNC(=S)Nc2ccccc2)cc1 |  | inactive: 15.2% |
| O=C(Cc1ccc(S(=O)(=O)N2CCOCC2)s1)N1CCN(S(=O)(=O)c2cccc([N+](=O)[O-])c2)CC1 | inconclusive: 15.8 µM [activator, partial curve, poor fit] |  |
| CCCCC[C@@H](C)N1C[C@@H](COCc2ccccc2)Oc2cc(N3CC[C@@H](N(C)C)C3)ccc2S1(=O)=O | inconclusive: 12.6 µM [activator, partial curve, poor fit] |  |
| Cc1ccccc1NC(=O)CSc1nc2ccc(NC(=O)c3ccco3)cc2s1 | inconclusive: 31.6 µM [activator, single point] |  |
| CCN(Cc1nc2ccccc2c(=O)[nH]1)Cc1cc(=O)oc2cc(OC)ccc12 | inconclusive: 10 µM [activator, partial curve] |  |
| Cc1ccc(C(=O)NCCSc2ccc(Cl)cc2)cc1S(=O)(=O)Nc1ccccc1 | inconclusive: 31.6 µM [activator, single point] |  |
| COc1cc(/C=C2\C(=N)N3N=C(N4CCOCC4)SC3=NC2=O)ccc1OC(=O)c1ccccc1 | inconclusive: 15.8 µM [activator, single point] |  |
| COc1ccc(S(=O)(=O)NCCSCc2ccco2)cc1 | inconclusive: 50.1 µM [activator, single point] |  |
| CCOc1cc(Cl)c(S(=O)(=O)n2cc(C)nc2CC)cc1Cl |  | inactive: 17.6% |
| CC(=O)Nc1ccc(Nc2ccc(S(=O)(=O)C(F)(F)F)cc2[N+](=O)[O-])cc1 |  | inactive: 16.2% |
| CCOC(=O)Cn1nnnc1CN(Cc1cccs1)Cc1cc2cc(C)cc(C)c2[nH]c1=O | inconclusive: 22.4 µM [activator, partial curve, poor fit] |  |
| NC(N)=N/N=C/c1ccc(OCc2ccccc2Cl)cc1 |  | inconclusive: 72.7% [activator] |

| Structure (SMILES) | Potency | growth rescue (activation) |
| --- | --- | --- |
| Cc1ccc(C)c(CN2C(=O)c3ccccc3Sc3ccc(C(=O)NCCCOC(C)C)cc32)c1 | inconclusive: 14.1 µM [activator, partial curve] |  |
| Cc1ccc(-c2cc(C(=O)Nc3ccc(S(=O)(=O)Nc4cc(C)on4)cc3)c3ccccc3n2)c(C)c1 | inconclusive: 15.8 µM [activator, partial curve] |  |
| COc1ccccc1-c1ccc2c(c1)C(C)(Cc1cccc(C#N)c1)C(=O)N2 (configuration not stated) | inconclusive: 31.6 µM [activator, single point] |  |
| C[C@@H]1CN([C@@H](C)CO)C(=O)c2cc(NC(=O)Nc3ccc4c(c3)OCO4)ccc2O[C@H]1CN(C)S(=O)(=O)c1ccc(F)cc1 | inconclusive: 22.4 µM [activator, partial curve, poor fit] |  |
| CC(=O)Nc1cc(-c2ccccc2N(C)C)cn2c(-c3ccc(F)c(Cl)c3)cnc12 | inconclusive: 50.1 µM [activator, single point] |  |
| C[C@H]1CCC/C=C/C(=O)c2c(cc(O)c(Cl)c2O)CC(=O)O1 |  | inactive: -12.6% |
| CCOC(=O)N1CCC(NC(=O)c2cnn(-c3cccc(C)c3)c2C2CCN(C(=O)OC(C)(C)C)CC2)CC1 |  | inactive: 18.5% |
| O=C(N/N=C/c1cccs1)c1cc(-c2cccc3ccccc23)n[nH]1 | inconclusive: 50.1 µM [activator, single point] |  |
| CN(C(=O)c1cc2c(cc1Br)OCO2)c1cccc2ccccc12 |  | inactive: 30.4% |
| C[C@@H](C(=O)Nc1ccc2ccccc2c1)[C@H]1C[C@]1(C)[C@H](NS(=O)(=O)c1ccccc1)c1ccccc1 | inconclusive: 35.5 µM [activator, single point] |  |
| O=C(Nc1ccc(F)cc1)C1CCN(c2ncnc3c2nc2n3CCCCC2)CC1 |  | inactive: -7.38% |
| NC(=O)[C@H]1CC2(CC(c3cccc(NC(=O)CC(c4ccccc4)c4ccccc4)c3)=NO2)CN1C(=O)CC(c1ccccc1)c1ccccc1 (some centres not stated) | inconclusive: 14.1 µM [activator, partial curve, poor fit] |  |
| CC1=Nc2ccccc2/C1=C\c1nc(-c2ccccc2)oc1O | inconclusive: 35.5 µM [activator, partial curve, poor fit] |  |
| Cc1ccc(C(=O)N/N=C/c2ccoc2)cc1C | inconclusive: 11.2 µM [activator, partial curve] |  |
| CCn1c(CSc2nc(C)cs2)nc2cc(S(=O)(=O)N(C)C)ccc21 |  | inconclusive: 90.4% [activator] |
| CC(C)Oc1ccc(S(=O)(=O)N2CCOCC2)cc1NC(=O)C1=NN(c2ccccc2)C(=O)CC1 | inconclusive: 25.1 µM [activator, partial curve, poor fit] |  |
| CC(Sc1nnc(Cc2ccc([N+](=O)[O-])cc2)o1)C(N)=O (configuration not stated) | inconclusive: 5.62 µM [activator, full curve, poor fit] |  |
| C[C@@H]1CCCCO[C@H](CN(C)C(=O)Cc2ccccc2)[C@H](C)CN([C@@H](C)CO)C(=O)c2cc(NC(=O)Nc3ccc(F)cc3)ccc2O1 | inconclusive: 25.1 µM [activator, single point] |  |
| Cc1cc(C(=O)Nc2nnc(C(F)(F)F)s2)no1 |  | inactive: -1.37% |
| N#Cc1ccc(C23CC4(C2)[C@H](CN(P(=O)(c2ccccc2)c2ccccc2)[C@@H]4c2ccccc2)C3c2ccc(Cl)nc2)cc1 (some centres not stated) | inconclusive: 15.8 µM [activator, partial curve, poor fit] |  |
